Measured values taken from the supplement of paper PMC12067230.
The data scatter; read single values as rough.
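Further: [psi-pin-] Saccharomyces cerevisiae expressing SupN fusions, induced by 100 µM Cu2SO4, selected 7 d at 30 °C without adenine and uracil, scored by deep sequencing of output versus input.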

Assay: amyloid nucleation score relative to library mode (yeast Sup35 reporter selection) (log enrichment difference); higher = more amyloid nucleation; sequences are the first 22 residues of the Bri2 peptide extended by up to 12 random residues
Conditions: random library (experiment): 1;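 active = nucleation score significantly above 0 at FDR 0.05; inactive = not significantly above 0 or absent from output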
In the case of EASNCFAIRHFENKFAVETLICLS, the amyloid nucleation score is reported as “inactive”.
For EASNCFAIRHFENKFAVETLICLSALGAPWSVGE, the amyloid nucleation score was 5.38.
For EASNCFAIRHFENKFAVETLICLSAPRTNCSYPL, the amyloid nucleation score was 1.89.
For EASNCFAIRHFENKFAVETLICLSCKNVTWIGLG, the amyloid nucleation score was 3.95.
For EASNCFAIRHFENKFAVETLICLSCLGA, the amyloid nucleation score was 8.71.
In the case of EASNCFAIRHFENKFAVETLICLSDMF, the amyloid nucleation score is reported as 4.71.
With EASNCFAIRHFENKFAVETLICLSDMWTALVWSG the amyloid nucleation score was “inactive”.
In the case of EASNCFAIRHFENKFAVETLICLSDYWPDLGNRT, the amyloid nucleation score is reported as “inactive”.
For EASNCFAIRHFENKFAVETLICLSEDANVDVGRR, the amyloid nucleation score was “inactive”.
With EASNCFAIRHFENKFAVETLICLSEFRLLRRQVG the amyloid nucleation score was “inactive”.
For EASNCFAIRHFENKFAVETLICLSELSCERWIQG, the amyloid nucleation score was “inactive”.
With EASNCFAIRHFENKFAVETLICLSEYITR the amyloid nucleation score was “inactive”.
Work on EASNCFAIRHFENKFAVETLICLSFCTAWASYQW yielded an amyloid nucleation score of 6.3.
In the case of EASNCFAIRHFENKFAVETLICLSFFTLMHNKV, the amyloid nucleation score is reported as “inactive”.
In the case of EASNCFAIRHFENKFAVETLICLSFLIRGPSQTR, the amyloid nucleation score is reported as “inactive”.
Work on EASNCFAIRHFENKFAVETLICLSGDGLSWTQCV yielded an amyloid nucleation score of 4.86.
In the case of EASNCFAIRHFENKFAVETLICLSGGRWPRGMVS, the amyloid nucleation score is reported as “inactive”.
Sequence EASNCFAIRHFENKFAVETLICLSGITRHDSR has an amyloid nucleation score of 4.56.
EASNCFAIRHFENKFAVETLICLSGMCRLLVLLS showed an amyloid nucleation score of 2.25.
For EASNCFAIRHFENKFAVETLICLSGMMTDPIRIL, the amyloid nucleation score was “inactive”.
With EASNCFAIRHFENKFAVETLICLSHLMGEKTAS the amyloid nucleation score was “inactive”.
With EASNCFAIRHFENKFAVETLICLSKHSNRHEALR the amyloid nucleation score was “inactive”.
For EASNCFAIRHFENKFAVETLICLSKLNDSMPSFS, the amyloid nucleation score was “inactive”.
EASNCFAIRHFENKFAVETLICLSLCAAIHNWLD gave an amyloid nucleation score of -0.627.
With EASNCFAIRHFENKFAVETLICLSLEVEATGERR the amyloid nucleation score was “inactive”.
In the case of EASNCFAIRHFENKFAVETLICLSLFIYL, the amyloid nucleation score is reported as -0.595.
For EASNCFAIRHFENKFAVETLICLSLFNK, the amyloid nucleation score was 7.49.
For EASNCFAIRHFENKFAVETLICLSLGRRMIVALW, the amyloid nucleation score was “inactive”.
In the case of EASNCFAIRHFENKFAVETLICLSLGYRYGVKAL, the amyloid nucleation score is reported as “inactive”.
With EASNCFAIRHFENKFAVETLICLSLMSHVYVMGW the amyloid nucleation score was “inactive”.
EASNCFAIRHFENKFAVETLICLSLPMLGALGSE showed an amyloid nucleation score of 0.307.
Sequence EASNCFAIRHFENKFAVETLICLSLVQSHGPGET has an amyloid nucleation score of 6.87.
With EASNCFAIRHFENKFAVETLICLSMTSMLSMWSC the amyloid nucleation score was “inactive”.
With EASNCFAIRHFENKFAVETLICLSNAVRCGNLGR the amyloid nucleation score was “inactive”.
In the case of EASNCFAIRHFENKFAVETLICLSNDLVTKPWCR, the amyloid nucleation score is reported as “inactive”.
In the case of EASNCFAIRHFENKFAVETLICLSNPCKSDGRKT, the amyloid nucleation score is reported as “inactive”.
With EASNCFAIRHFENKFAVETLICLSNVTLRDRTQK the amyloid nucleation score was 8.57.
EASNCFAIRHFENKFAVETLICLSQANVANCVKG showed an amyloid nucleation score of 1.12.
EASNCFAIRHFENKFAVETLICLSQMFSNVCKVS gave an amyloid nucleation score of -0.0935.
EASNCFAIRHFENKFAVETLICLSQSFSVVIMSC showed an amyloid nucleation score of -0.551.
EASNCFAIRHFENKFAVETLICLSRCECRYDGPS showed an amyloid nucleation score of 3.68.
For EASNCFAIRHFENKFAVETLICLSRDPCGPAVRE, the amyloid nucleation score was “inactive”.

Same assay, conditions: random library (experiment): 2
For EASNCFAIRHFENKFAVETLICLRYYLYASMY, the amyloid nucleation score was “inactive”.
With EASNCFAIRHFENKFAVETLICLSCGLLTGRIMG the amyloid nucleation score was 7.85.
For EASNCFAIRHFENKFAVETLICLSCNKLRFARFV, the amyloid nucleation score was -0.0677.
Sequence EASNCFAIRHFENKFAVETLICLSCYFGR has an amyloid nucleation score of 8.92.
In the case of EASNCFAIRHFENKFAVETLICLSCYWQRSLFIT, the amyloid nucleation score is reported as 1.54.
In the case of EASNCFAIRHFENKFAVETLICLSEKMLYPVYGD, the amyloid nucleation score is reported as “inactive”.
Sequence EASNCFAIRHFENKFAVETLICLSETFNNIPKAL has an amyloid nucleation score of 0.261.
In the case of EASNCFAIRHFENKFAVETLICLSETSVVACGMP, the amyloid nucleation score is reported as “inactive”.
With EASNCFAIRHFENKFAVETLICLSFDIPWESLLI the amyloid nucleation score was “inactive”.
For EASNCFAIRHFENKFAVETLICLSFKYRYMLFAR, the amyloid nucleation score was “inactive”.
For EASNCFAIRHFENKFAVETLICLSFLDPLVAGMR, the amyloid nucleation score was “inactive”.
Work on EASNCFAIRHFENKFAVETLICLSFTNNIGIVSK yielded an amyloid nucleation score of 5.67.
With EASNCFAIRHFENKFAVETLICLSFVIVGHSIVF the amyloid nucleation score was “inactive”.
With EASNCFAIRHFENKFAVETLICLSGMGHSRGLWK the amyloid nucleation score was 3.85.
Sequence EASNCFAIRHFENKFAVETLICLSGRIGSQKGGM has an amyloid nucleation score of 3.49.
With EASNCFAIRHFENKFAVETLICLSGYTLFSTNFW the amyloid nucleation score was “inactive”.
With EASNCFAIRHFENKFAVETLICLSHFSIEGNCWD the amyloid nucleation score was -0.293.
EASNCFAIRHFENKFAVETLICLSIEDYFLGCLE showed an amyloid nucleation score of 0.0408.
In the case of EASNCFAIRHFENKFAVETLICLSIFMLSCIRLG, the amyloid nucleation score is reported as “inactive”.
With EASNCFAIRHFENKFAVETLICLSIVVNTVCLIE the amyloid nucleation score was “inactive”.
In the case of EASNCFAIRHFENKFAVETLICLSKFRHKKCT, the amyloid nucleation score is reported as -0.191.
In the case of EASNCFAIRHFENKFAVETLICLSKFSLFPCSRE, the amyloid nucleation score is reported as 5.33.
In the case of EASNCFAIRHFENKFAVETLICLSKSNRYRFMRV, the amyloid nucleation score is reported as “inactive”.
With EASNCFAIRHFENKFAVETLICLSKYSPRFINTM the amyloid nucleation score was “inactive”.
With EASNCFAIRHFENKFAVETLICLSLF the amyloid nucleation score was 8.13.
For EASNCFAIRHFENKFAVETLICLSLKYAGSIIGD, the amyloid nucleation score was “inactive”.
With EASNCFAIRHFENKFAVETLICLSLMRDTYKANS the amyloid nucleation score was “inactive”.
Work on EASNCFAIRHFENKFAVETLICLSLNYLSLQEHE yielded an amyloid nucleation score of 7.27.
EASNCFAIRHFENKFAVETLICLSLQEILVCSCI showed an amyloid nucleation score of 5.18.
In the case of EASNCFAIRHFENKFAVETLICLSLRSMTVYRLP, the amyloid nucleation score is reported as “inactive”.
For EASNCFAIRHFENKFAVETLICLSLSCYHKLVHI, the amyloid nucleation score was “inactive”.
For EASNCFAIRHFENKFAVETLICLSLVWVL, the amyloid nucleation score was “inactive”.
Sequence EASNCFAIRHFENKFAVETLICLSLVYCIGYYGW has an amyloid nucleation score of 5.07.
Sequence EASNCFAIRHFENKFAVETLICLSLYYLR has an amyloid nucleation score of 4.98.
In the case of EASNCFAIRHFENKFAVETLICLSMRLS, the amyloid nucleation score is reported as “inactive”.
In the case of EASNCFAIRHFENKFAVETLICLSNMKGFACRDN, the amyloid nucleation score is reported as “inactive”.
For EASNCFAIRHFENKFAVETLICLSPEFTPGKLCS, the amyloid nucleation score was “inactive”.
Work on EASNCFAIRHFENKFAVETLICLSPFALIRFKCF yielded an amyloid nucleation score of 4.06.
For EASNCFAIRHFENKFAVETLICLSQVLVGVIIWT, the amyloid nucleation score was “inactive”.
For EASNCFAIRHFENKFAVETLICLSRCAQWSRWTA, the amyloid nucleation score was “inactive”.
EASNCFAIRHFENKFAVETLICLSRDAMFAECIM gave an amyloid nucleation score of -0.0344.
Work on EASNCFAIRHFENKFAVETLICLSRES yielded an amyloid nucleation score of 0.616.

Same assay, conditions: random library (experiment): 3
For EASNCFAIRHFENKFAVETLICLSAAYVWVDYRH, the amyloid nucleation score was “inactive”.
For EASNCFAIRHFENKFAVETLICLSACPGVALACS, the amyloid nucleation score was “inactive”.
For EASNCFAIRHFENKFAVETLICLSAKALRVFCAR, the amyloid nucleation score was “inactive”.
For EASNCFAIRHFENKFAVETLICLSARAVGCPYEG, the amyloid nucleation score was “inactive”.
EASNCFAIRHFENKFAVETLICLSARLSVLEMAV gave an amyloid nucleation score of 2.99.
Work on EASNCFAIRHFENKFAVETLICLSCHVQESSRNP yielded an amyloid nucleation score of 9.87.
In the case of EASNCFAIRHFENKFAVETLICLSCLDEMFAF, the amyloid nucleation score is reported as 4.89.
In the case of EASNCFAIRHFENKFAVETLICLSCNMTEGMFVM, the amyloid nucleation score is reported as 6.72.
For EASNCFAIRHFENKFAVETLICLSCV, the amyloid nucleation score was 7.95.
For EASNCFAIRHFENKFAVETLICLSELIHFFVKRV, the amyloid nucleation score was 0.788.
With EASNCFAIRHFENKFAVETLICLSFAYASWPSRV the amyloid nucleation score was 5.38.
With EASNCFAIRHFENKFAVETLICLSFESKLSKMFD the amyloid nucleation score was 4.44.
For EASNCFAIRHFENKFAVETLICLSFGLTVRTRSA, the amyloid nucleation score was “inactive”.
For EASNCFAIRHFENKFAVETLICLSFKATKWKSRR, the amyloid nucleation score was 0.527.
For EASNCFAIRHFENKFAVETLICLSFMQEDGYGAR, the amyloid nucleation score was 6.86.
With EASNCFAIRHFENKFAVETLICLSGLKRDVSCSV the amyloid nucleation score was “inactive”.
For EASNCFAIRHFENKFAVETLICLSGNNRVGSSGA, the amyloid nucleation score was “inactive”.
Sequence EASNCFAIRHFENKFAVETLICLSGVMPFGIHF has an amyloid nucleation score of 6.91.
EASNCFAIRHFENKFAVETLICLSIMSDLSSSKV showed an amyloid nucleation score of 6.54.
For EASNCFAIRHFENKFAVETLICLSIYVVLFIMRS, the amyloid nucleation score was 1.71.
Work on EASNCFAIRHFENKFAVETLICLSKGCNRRHRKG yielded an amyloid nucleation score of 3.65.
Work on EASNCFAIRHFENKFAVETLICLSKVTMQKCWSE yielded an amyloid nucleation score of 1.7.
EASNCFAIRHFENKFAVETLICLSLFCYCLCGAS gave an amyloid nucleation score of 2.73.
EASNCFAIRHFENKFAVETLICLSLLEFGGTFHG showed an amyloid nucleation score of 7.73.
EASNCFAIRHFENKFAVETLICLSLPI showed an amyloid nucleation score of 5.81.
In the case of EASNCFAIRHFENKFAVETLICLSLVDCMMSNGW, the amyloid nucleation score is reported as “inactive”.
In the case of EASNCFAIRHFENKFAVETLICLSLVSWLNSKVR, the amyloid nucleation score is reported as “inactive”.
With EASNCFAIRHFENKFAVETLICLSLYIGRCVLTE the amyloid nucleation score was “inactive”.
EASNCFAIRHFENKFAVETLICLSMCMTSNQVDS gave an amyloid nucleation score of 7.95.
In the case of EASNCFAIRHFENKFAVETLICLSMIIRLCVSTL, the amyloid nucleation score is reported as “inactive”.
With EASNCFAIRHFENKFAVETLICLSMLVRWGGSAR the amyloid nucleation score was “inactive”.
For EASNCFAIRHFENKFAVETLICLSMTSF, the amyloid nucleation score was 4.77.
EASNCFAIRHFENKFAVETLICLSNVSLTELDL showed an amyloid nucleation score of 5.16.
For EASNCFAIRHFENKFAVETLICLSPGQSWCMAN, the amyloid nucleation score was “inactive”.
In the case of EASNCFAIRHFENKFAVETLICLSRCGL, the amyloid nucleation score is reported as “inactive”.
